# Source: the supplement of paper PMC10126150
# Sequences with one replicate were seen in a single cluster, so their values are uncertain.
# Tested on: ATP
# Assay: switch fluorescence ratio, 500 uM ATP over buffer (Cy3 cluster intensity, sum of 5 cycles each) (fold (ratio)); higher = stronger signal-on switching upon ATP binding; sequences stand for … in TCGTCGGCAGCGTCAGATGTGTATAAGAGACAGTTTTTTTTTTTTTTTTTTTTTTTTT…TC
# Conditions: aptamer strand: ATP DNA aptamer (quencher-CACCTGGGGGAGTATTGCGGAGGAAGG + anchor), 100 nM annealed; ATP concentration: 500 uM; one replicate
# Summary of the method: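 Switching-strand clusters labelled with Cy3 on a modified Illumina MiSeq flow-cell were annealed to 100 nM quencher-labelled ATP aptamer, imaged in selection buffer, and re-imaged after 15 min with 500 uM ATP at 22 °C. This was done over five cycles with NaOH stripping and re-annealing in between. The fluorescence ratio is summed target-cycle over summed buffer-cycle Cy3 intensity per cluster, averaged per switch-domain sequence, excluding clusters outside 100-1000 RFU.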
# 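Note: ATP exposure 15 min at 22 °C before imaging.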
row,Sequence,switch fluorescence ratio
1,GAGGGGGCT,0.98
2,GCGTATTTTG,0.975
3,GTTATAGTGC,0.988
4,CAGCGCCACA,1.01
5,GAAGAGCGTT,0.969
6,CGCTCGTTA,0.996
7,CACGAGTCCT,0.995
8,CAGCGTGGCC,1.03
9,AAGCTGATTA,1.01
10,TGGACGAAGA,0.98
11,CACGGAAGGT,1.1
12,ACGCGAGTAG,1.03
13,TGAACTCACG,1.41
14,ATACCGTATA,1.17
15,TTCCAACCAG,1.05
16,GGTTCCTTTT,1.02
17,AAACTGAAC,1.24
18,ACCTTTTGCT,1.01
19,TTCTTAGACT,1.01
20,ATCAAAGTT,1.03
21,TGATAAAGAA,1.01
22,AAAATACTGG,1.01
23,TCAAGCCCAA,0.984

row,Sequence,switch fluorescence ratio
1,CAGTTATCTG,1
2,TATCTACCTT,1.15
3,TGAGTCTGGT,0.957
4,AATTCGCCCA,1.03
5,GCCCTAGTCT,1.03
6,GGACTGTGTT,0.983
7,TTGATAATAT,0.993
8,TGAGTTTGAG,0.997
9,TGGTAACATT,1.04
10,CGGGTTAAAG,0.993
11,TAATTATTGG,0.958
12,GATCGGTCTC,0.954
13,CCATTGACAC,1.04
14,GCTTACACAC,1.32
15,AGCTGAGA,0.959
16,TTTTCTAAA,1.03
17,AGATAGTTGC,0.999
18,CTCTTGTCGT,1.01
19,CTGCATCGTC,1.08
20,AGTTCCAGT,0.977
21,GGCTAGGGTG,1.12
22,TGTTTATCCT,1.05
23,TAGGAACCCT,1.07

row,Sequence,switch fluorescence ratio
1,GGCTGGACGA,0.977
2,TGCGGCACGG,1.02
3,GGGTTGTGAC,0.972
4,GACGATCAAT,1.79
5,TTTGTGAAAT,1.01
6,CCGAAAGGAT,1.62
7,TTGTAGCCGC,1.08
8,TGTGGTGTTA,0.956
9,AATAGGTGGT,0.985
10,CGGCATAAGA,1.07
11,TCGTAGATTC,1.03
12,GTCCTAGCGC,0.941
13,CGGGTGAATG,1.07
14,ATTAAGACAC,1.11
15,GTCGTATGTA,0.986
16,CCGTTGTCCC,1.22
17,CTTACCTGTT,1.16
18,AGGTATAGAT,1.05
19,CATGCGACCG,0.984
20,TACCTAGCA,0.996
21,TGTATATGAT,0.988
22,GCATAAGATT,1.01
23,CGTACACCTT,1.13

row,Sequence,switch fluorescence ratio
1,CCAAAGATTT,0.987
2,TATCTGTTTT,1.03
3,AAAGTAGAG,0.989
4,TCAATATGCT,0.995
5,TGATCATATA,0.976
6,ACGGTTAATC,1.02
7,GAACAGGGCG,0.977
8,GATGAGTAAG,0.938
9,GAGGGATCGT,0.978
10,CCCGTGAATA,1.41
11,TGCTGGTTA,1.02
12,GAACTGTAAT,1.02
13,AAGAGTAAAA,1.01
14,CCAGTGACTA,1.02
15,AACTCATGA,0.981
16,ATACACAAGA,1.05
17,ATTTGTCGGA,1
18,TTTGCCTAAA,0.974
19,ATATGTGTGC,0.984
20,TGCTTAAATA,1.02
21,TACTGGAACT,1
22,TACCCCGGGG,1.04
23,ATGATCGCG,0.958

row,Sequence,switch fluorescence ratio
1,TCTCAGCAAC,3.39
2,GTCGTACCAG,0.97
3,GTCGCGGGGC,1.03
4,GACGCTGAAA,1.39
5,CTAGTAATCT,1.07
6,TAGTCTGTGT,0.961
7,CGATTCGGCA,0.991
8,AACTTTAGGA,0.983
9,TCAGGGTGGT,1.02
10,TACTTAACAG,1.13
11,ATGCTTATAA,1.02
12,GACTGGGCCC,0.985
13,CGCGTCGTCG,1.01
14,GGTCGTCACT,1.03
15,TTTGGGAAAC,1.01
16,GTAAGGGTAT,0.975
17,AACCGCGGCC,1.2
18,CAGGCGACGT,0.991
19,AGAGGCGATC,1.04
20,GCCATTTCAG,0.959
21,CAGACCCATT,1.02
22,GGCGTGGGTA,0.998
23,AGGGTGCGTA,1.03

row,Sequence,switch fluorescence ratio
1,ATGCCATGAA,1.01
2,TTACTTTGCG,0.976
3,GGATAGAGG,0.96
4,ATTAATTTA,1.04
5,ACAGAATACT,1.15
6,AGACGAACTT,1.26
7,GCGTAGGTTA,1.04
8,GGAGTAGCCA,0.979
9,GAATTCTCAG,1
10,TAATTTCTA,1.03
11,TGCAAGTAGT,1.04
12,ATGCATGATG,0.98
13,TCGTATGAAA,1.02
14,CCTGACTATT,1.05
15,GAAGTTTGGG,1.01
16,GAAGGATTCG,1.03
17,CGTCACCCTA,1.06
18,GCAGCACGTG,1
19,GATGTGCAAT,1.36
20,GTTCTCCCCT,1.16
21,TGCTGGTGTT,1.01
22,GCACCGCATA,1.95
23,CACTACGATC,1.06

row,Sequence,switch fluorescence ratio
1,AGCTTAGCAT,0.993
2,GGTATTAAC,0.997
3,CTTTGTGCCA,0.989
4,CTTCCCATAA,1.59
5,AATTAGGCAA,1.09
6,ACGAGGATAG,1.05
7,TTGAGCAACC,1.18
8,GCGAAACTAT,1.03
9,TGTGCCGGGT,0.96
10,CATGCAGTCC,1.01
11,CTACGGTCTG,1
12,GTGTGTATTA,1.01
13,TGGTTTTCCT,1.02
14,GCAGACAGTA,1.01
15,TTCAGGCACA,1.11
16,TGTGGGCCCG,1.06
17,AGTAGTCGGC,0.938
18,TGTGAAGT,1.01
19,TCCCTTTTTT,1
